Experimental data taken from PubChem BioAssay AID686970 (National Center for Advancing Translational Sciences (NCATS), 2013).
Among all 360,000 compounds or so, about 6,000 (1.7%) were called active. The inconclusive results got no clear call from the source; some entries with a clear call stand among them for comparison. Calls follow the shape of the dose curve; as a rule, active = well fitted cell-killing curve with a large enough effect; inconclusive = small, poorly fitted or top-dose-only effect, or effect the other way; inactive = flat fitted curve, though single readings scatter. No potency is given beside an inconclusive call; the fits are too rough.

Assay: qHTS for induction of synthetic lethality in tumor cells producing 2HG: qHTS for the HT-1080-NT fibrosarcoma cell line;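 also: NT is the 2HG producing partner of a matched IDH1 knockdown line; nearly all actives have a fitted effect of over 55% in size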
Settings: HT-1080-NT fibrosarcoma viability, CellTiter-Glo ATP luminescence, 48 h; series mostly up to 46.1 µM
How it was run: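 Viability by CellTiter-Glo luminescence after 48 h compound exposure at 37C of HT-1080-NT cells (750/well, RPMI, 5% FBS). % activity scaled between DMSO wells and medium-only wells, then curve-fitted and categorized by curve class.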
Potency is read from the fitted curve at half-maximal effect; tags tell the direction and shape of the fitted curve.

Row | SMILES | Potency
1 | Cc1ccc(C(C)C)c(OCC(=O)Nc2ccccc2N2CCN(C)CC2)c1 | inconclusive [cytotoxic, single point]
2 | COc1cccc(C2c3[nH]c4ccccc4c3C[C@H]3C(=O)N(c4ccccc4C(=O)NCCCN4CCOCC4)C(=O)N23)c1 (some centres not stated) | inconclusive [cytotoxic, partial curve]
3 | CCOc1ccc(-c2cc(C(=O)N3CCCC3)c3ccccc3n2)cc1 | inactive
4 | CCCNC(=O)COc1ccc2c(=O)c(Oc3ccccc3F)coc2c1 | inactive
5 | COc1ccc(O)cc1 | inconclusive [cytotoxic, single point]
6 | O=C1/C(=C/c2cccnc2)SC(=S)N1c1ccc(O)cc1 | inconclusive [cytotoxic, single point]
7 | O=C(c1ccc(S(=O)(=O)c2cccc(Cl)c2)c([N+](=O)[O-])c1)N1CCN(Cc2ccccc2)CC1 | active: 8.2 µM
8 | Cn1c(=O)n(C)c2cc(NC(=O)CCl)ccc21 | inconclusive [cytotoxic, single point]
9 | CC(=O)C1=C(c2ccc(Br)cc2)C(=O)c2ccccc2C1=O | active: 13 µM
10 | N#Cc1c(Nc2ccc(F)cc2)sc(C(=O)c2ccc(F)cc2)c1N | inconclusive [cytotoxic, single point]
11 | CCN(Cc1cc(=O)n2cc(Cl)c(C)c(Cl)c2n1)Cc1nc2ccccc2c(=O)[nH]1 | inactive
12 | COc1cccc(Cn2nnc(C(=O)Nc3ccc(C)cc3)c2N)c1 | inactive
13 | COc1ccccc1NC(=O)C(=O)NCCC1CCCCN1S(=O)(=O)c1ccc(F)cc1 (configuration not stated) | inactive
14 | Cc1cccc(NC(=O)C(=O)NNC(=O)c2ccc(C(C)(C)C)cc2)c1 | active: 6.51 µM
15 | Cc1cc(OCc2cc(C(=O)N(C)CCCN3CCOCC3)no2)cc(C)c1Cl | inconclusive [cytotoxic, single point]
16 | O=C1CC(N2CCN(c3nc4ccccc4s3)CC2)C(=O)N1c1cccc(F)c1 (configuration not stated) | inactive
17 | COc1ccc(CCC(=O)OCC(=O)Nc2ccc(OC)c(OC)c2)cc1OC | inactive
18 | CCOC(=O)C1CCN(c2cc3c(cc2NC(=O)c2ccccc2OCC)n(C)c(=O)n3C)CC1 | inactive
19 | O=C(CSc1ncccc1-c1nc2ccccc2[nH]1)NC1CC1 | inactive
20 | Cc1noc(C)c1COC(=O)c1cnc(Cl)c(Cl)c1 | inconclusive [cytotoxic, single point]
21 | COc1ccc(Nc2nc(NC(C)(C)C)nc(N3CCOCC3)n2)c(OC)c1 | inactive
22 | COC(=O)[C@]1(C)N[C@H](CN(C)C(=O)Nc2ccccc2)[C@@H]2C(=O)N(Cc3ccccc3)C(=O)[C@@H]21 | inactive
